Data on 2 compounds can be found in PubChem BioAssay AID2427 (National Center for Advancing Translational Sciences (NCATS), 2010).

Some of the results follow. Further columns of the screen follow, without active or inactive calls. The list favours compounds with an active or inconclusive main result.

This experiment addresses 15-hydroxyprostaglandin dehydrogenase [NAD(+)] (Homo sapiens) (UniProt P15428). The experiment is described as follows: Thermal Shift Assay for Inhibitors of HPGD (15-Hydroxyprostaglandin Dehydrogenase). The conditions noted are these: Recombinant HPGD thermal shift, SYPRO orange DSF, measured here: delta Tm with NADH cofactor, at 250 µM, stronger effect = higher value. On the procedure: Assay Overview: Human 15-Hydroxyprostaglandin dehydrogenase (HPGD) catalyzes the inactivation of prostaglandin E2, and plays a major role in cancer biology by antagonizing the oncogenic potential of cyclooxygenase type 2 (COX2). Studies to assess the stability of human 15-PGDH in presence of compounds was performed as described (Niesen et al., 2007) with variations. References 1. Myung SJ, Rerko RM, Yan M, Platzer P, Guda K, Dotson A, Lawrence E, Dannenberg AJ, Lovgren AK, Luo G, Pretlow TP, Newman RA, Willis J, Dawson D, Markowitz SD. 15-Hydroxyprostaglandin dehydrogenase is an in vivo suppressor of colon tumorigenesis. Proc Natl Acad Sci U S A. 2006 Aug 8;103(32):12098-102. 2. Yan M, Rerko RM, Platzer P, Dawson D, Willis J, Tong M, Lawrence E, Lutterbaugh J, Lu S, Willson JK, Luo G, Hensold J, Tai HH, Wilson K, Markowitz SD. 15-Hydroxyprostaglandin dehydrogenase, a COX-2 oncogene antagonist, is a TGF-beta-induced suppressor of human gastrointestinal cancers. Proc Natl Acad Sci U S A. 2004 Dec 14;101(50):17468-73. 3. […]
Chain of UniProt P15428 (P15428 whole entry, looked up): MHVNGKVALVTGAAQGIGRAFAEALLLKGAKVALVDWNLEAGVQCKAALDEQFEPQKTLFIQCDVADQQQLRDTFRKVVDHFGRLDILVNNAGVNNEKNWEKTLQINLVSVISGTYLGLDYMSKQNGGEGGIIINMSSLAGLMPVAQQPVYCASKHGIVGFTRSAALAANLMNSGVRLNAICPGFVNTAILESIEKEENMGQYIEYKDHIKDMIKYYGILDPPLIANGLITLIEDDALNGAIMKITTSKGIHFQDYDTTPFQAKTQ
HPGD was diluted to a final assay concentration of 1 uM in 100 mM Tris buffer, pH 8.0, containing 0.01% Tween-20 and 1:1000 SYPRO orange dye. […] Heat denaturation curves were recorded using a RT-PCR instrument (Mx3005p, Agilent) applying a temperature gradient of 2 degree C/min. […]

As for `CN[C@@H](C)[C@H](O)c1ccccc1`, the thermal shift (delta Tm) was -0.1 C. The result for `CCN(CC)C(=O)c1ccc(NC(=O)c2cc(-n3cnnc3)ccc2Cl)cc1` reads 2.2 C.
